Experimental data from PubChem BioAssay (NCATS).
“And” between values parts separate entries of the source, which are not always exact repeats. Identical values can stand only once. This list was built around the results that the source calls inconclusive (neither active nor inactive); the mix of calls is not that of the screen. Potencies beside an inconclusive call are fits to weak or partial responses and may not hold up. The source made the active and inactive calls. The call rests on the fitted dose curve; in most records, active means well fitted cell-killing curve with a large enough effect; inconclusive means small, poorly fitted or top-dose-only effect, or effect the other way; inactive means no such curve, though single readings can be large or run the other way.

Columns and labels:
[1] = Viability qHTS for spleen associated tyrosine kinase inhibitor (SYKi) naive MV4-11 cells (AID 1963823); settings: MV4-11 AML viability, CellTiter-Glo luminescence, 72 h; viability (% of control): at 45 µM (top of the series); further: nearly all actives have a fitted effect of over 40% in size
Method in brief: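 Compounds were dispensed acoustically onto plates, MV4-11 cells (SYKi-naive) added at 500 per well, and plates incubated 72 hr at 37 C. CellTiter-Glo was added and luminescence measured after 10 min.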

[2] = Viability qHTS for spleen associated tyrosine kinase inhibitor (SYKi) drug resistant MV4-11 cells (AID 1963824); further: nearly all actives have a fitted effect of over 35% in size
Method in brief: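 SYK-inhibitor-resistant MV4-11 AML cells were seeded at 500 per well onto compound and cultured 72 hours (37 °C, 5% CO2). CellTiter-Glo was then added, and after 10 min at room temperature, luminescence gave viability.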
Potency means the concentration at half of the fitted maximal effect; tags describe the fitted curve by direction and shape.

SMILES	Potency [1]	Potency [2]	viability (% of control) [1]	viability, % of control [2]
COc1cc(C(=O)OC[C@H]2O[C@@H](OC(C)(C)C(=O)O)[C@H](O)[C@@H](O)[C@@H]2O)cc(OC)c1O	inactive	inactive	–	–
COc1cc(C#N)ccc1S(=O)(=O)Nc1ccc2c(c1)cc(C)c(=O)n2C	inconclusive: 10.3 µM [cytotoxic, partial curve]	inconclusive: 9.2 µM [cytotoxic, partial curve]	–	–
COc1cc2ncnc(Oc3ccc(CC(=O)Nc4cnn(C(C)C)c4)cc3)c2cc1OC	inconclusive: 9.2 nM [cytotoxic, full curve] and inconclusive: 8.2 nM [cytotoxic, full curve]	inconclusive: 9.2 nM [cytotoxic, full curve] and inconclusive: 10.3 nM [cytotoxic, full curve]	–	–
c1nc(NC2CCCCCC2)c2cc(CNC[C@H]3CCCO3)sc2n1	inconclusive: 18.4 µM [cytotoxic, partial curve]	inconclusive: 18.4 µM [cytotoxic, partial curve]	–	–
CC1CC(OC(=O)C(O)c2ccccc2)CC(C)(C)C1 (configuration not stated)	inconclusive: 25.9 µM [cytotoxic, single point]	inconclusive: 16.4 µM [cytotoxic, partial curve]	–	–
CC1(C)CC[C@]2(CO[C@@H]3O[C@H](CO)[C@@H](O)[C@H](O)[C@H]3O)[C@@H](O)C[C@]3(C)C(=CCC4[C@@]5(C)CC[C@H](O[C@@H]6O[C@H](CO[C@@H]7O[C@H](CO[C@@H]8OC[C@@H](O)[C@H](O)[C@H]8O)[C@@H](O)[C@H](O)[C@H]7O)[C@@H](O)[C@H](O)[C@H]6O)C(C)(C)C5CC[C@]43C)[C@@H]2C1 (some centres not stated)	inconclusive: 1.55 µM [cytotoxic, single point]	inconclusive: 1.55 µM [cytotoxic, single point]	–	–
C[C@@H]1O[C@@H](O[C@H]2[C@H](OC(C#N)c3ccc(O)cc3)O[C@H](CO)[C@@H](O)[C@@H]2O)[C@H](O)[C@H](O)[C@H]1O (some centres not stated)	inactive	inactive	–	–
C/C=C(\C)C(=O)OC1C=C(C)CC(OC(=O)c2ccc(O)cc2)C2C1(C)CCC2(O)C(C)C (configuration not stated)	inconclusive: 7.09 µM [cytotoxic, single point]	inconclusive: 7.96 µM [cytotoxic, partial curve, poor fit]	–	–
CC(=O)NC[C@H]1CN(c2ccc(N3CCSCC3)c(F)c2)C(=O)O1	inconclusive: 11.6 µM [cytotoxic, partial curve]	inconclusive: 16.4 µM [cytotoxic, partial curve]	–	–
N[C@@H](CCC(=O)N[C@@H](CS)C(=O)NCC(=O)O)C(=O)O	inactive	inactive	–	–
CC(=O)N1CCN(c2ccc(NC(=O)Cc3cnc(-c4ccnc(F)c4)c(C)c3)nc2)CC1	inconclusive: 18.6 µM [cytotoxic, partial curve]	inconclusive: 18.6 µM [cytotoxic, partial curve]	–	–
COc1ccc(OC)c(-c2ccc(NC(=O)c3ccncc3F)cc2)c1	inconclusive: 4.11 µM [cytotoxic, full curve]	inconclusive: 5.8 µM [cytotoxic, full curve]	–	–
C=C1CC[C@@H]2[C@](C)(CO)[C@H](O)CC[C@@]2(C)[C@@H]1CC(=O)C1=CCOC1=O	inconclusive: 20.2 µM [cytotoxic, single point]	inconclusive: 14.3 µM [cytotoxic, partial curve]	–	–
CNc1cc2[nH]c(=O)n(-c3ccc(NC(=O)NS(=O)(=O)c4ccc(Cl)s4)cc3)c(=O)c2cc1F	inconclusive: 20.6 µM [cytotoxic, partial curve, poor fit]	inactive	–	–
CN1C(=O)N[C@@H](Cc2c[nH]c3c(Cl)cccc23)C1=O	inconclusive: 0.92 µM [rising, full curve, poor fit]	inconclusive: 0.13 µM [rising, full curve]	–	–
CN(C)C(=O)CNC(=O)Cc1ccccc1	inconclusive: 0.106 µM [cytotoxic, full curve]	inconclusive: 0.237 µM [cytotoxic, full curve, poor fit]	–	–
CO[C@]12C[C@@H](COC(=O)c3cncc(Br)c3)CN(C)[C@@H]1Cc1cn(C)c3cccc2c13	inconclusive: 9.44 µM [cytotoxic, partial curve]	inconclusive: 26.6 µM [cytotoxic, single point]	–	–
C[C@@H](O)[C@H]1C(=O)N2C(C(=O)O)=C(SCCN=CN)C[C@H]12	inconclusive: 0.0008 µM	inactive	–	–

SMILES	Potency [1]	Potency [2]	viability (% of control) [1]	viability, % of control [2]
COc1cc(/C=C/C(=O)OCC2OC(OC3(CO)OC(CO)C(O)C3O)C(O)C(O)C2O)ccc1O (configuration not stated)	inconclusive: 0.0022 µM [rising, full curve, poor fit]	inactive	–	–
CC(=O)OC1CC(=O)C2(C)C3CC4=C(OC(C)CC4=O)OC3(C)CCC2C1(C)C (configuration not stated)	inconclusive: 14.2 µM [cytotoxic, single point]	inactive	–	–
COc1ccccc1CN[C@H]1CCCN[C@H]1c1ccccc1	inconclusive: 16.4 µM [cytotoxic, partial curve, poor fit]	inconclusive: 10.3 µM [cytotoxic, partial curve]	–	–
O=C1OCC(c2ccccc2)=C1Cc1ccccc1	inconclusive: 0.411 µM [rising, full curve, poor fit]	inconclusive: 0.326 µM [rising, full curve, poor fit]	–	–
CC(=O)OCC1OC(OC2COC(OC3COC(OC4C(OC5C(CO)OC(OC6CCC7(C)C(CCC8(C)C7CC=C7C9CC(C)(C)CCC9(C(=O)OC9OC(CO)C(O)C(O)C9OC9OCC(OC%10OCC(O)(CO)C%10O)C(O)C9O)C(O)CC78C)C6(C)C)C(O)C5O)OCC(O)C4O)C(O)C3O)C(O)C2O)C(OC(=O)/C=C/c2ccccc2)C(O)C1OC(C)=O (configuration not stated)	inconclusive: 1.58 µM [cytotoxic, partial curve]	inconclusive: 1.58 µM [cytotoxic, partial curve]	–	–
C/C=C/C=C/C1=C2C(=O)C3(C)C4C(C(=O)CC(O)/C=C/C)=C(O1)C1(C)C2C2(C)OC1(O)C4(C)OC23O (configuration not stated)	inconclusive: 6.32 µM [cytotoxic, partial curve]	inconclusive: 11.2 µM [cytotoxic, partial curve]	–	–
CC1=CC(=O)C2C(C)(C)CCCC2(C)C12CCC1(COC(=O)C1)O2 (configuration not stated)	inconclusive: 20.2 µM [cytotoxic, single point]	inconclusive: 10.1 µM [cytotoxic, partial curve]	–	–
CC(C)(Oc1ccc(-c2nc3cc(Cl)ccc3s2)cc1)C(=O)O	inconclusive: 20.6 µM [cytotoxic, partial curve, poor fit]	inconclusive: 20.6 µM [cytotoxic, single point]	–	–
CC(C)CC(=O)c1c(O)cc2c(c1O)C(CC(C)C)C1=C(O2)C(C)(C)C(=O)C(C)(C)C1=O (configuration not stated)	active: 8.93 µM	active: 8.93 µM	–	–
CC(O)CCc1ccc(O[C@@H]2O[C@H](CO)[C@@H](O)[C@H](O)[C@H]2O)cc1 (some centres not stated)	inactive	inconclusive: 1.28 µM [cytotoxic, partial curve, poor fit]	–	–
CC(CC12CCCN1C(=O)C1CCCN1C2=O)OC(N)=O (configuration not stated)	inactive	inconclusive: 20.2 µM [cytotoxic, single point]	–	–
CN(C)c1ccc(C2O[C@@H](c3ccccc3)C[C@H](c3ccccc3)O2)cc1 (some centres not stated)	inactive	inactive	–	–
CCCc1[nH]nc2c1C(c1cc(Cl)cc(Cl)c1O)C(C#N)=C(N)O2 (configuration not stated)	active: 16.4 µM	active: 16.4 µM	–	–
C[C@H]1[C@H](C)C[C@@H](C(=O)O)C2CC[C@]3(C)C(=CC[C@@H]4[C@@]5(C)CC[C@H](O)C(C)(C)[C@@H]5CC[C@]43C)[C@@H]21 (some centres not stated)	inconclusive: 7.31 µM [cytotoxic, partial curve, poor fit]	inconclusive: 1.84 µM [cytotoxic, full curve]	–	–
COc1cccc(-c2cc(NCc3ccc4c(c3)OCO4)nc(N)n2)c1	inconclusive: 0.184 µM [cytotoxic, full curve]	inconclusive: 0.13 µM [cytotoxic, full curve]	–	–
CC1OC(OC2C(C)OC(OC3C(OC(=O)C45CCC(C)(C)CC4C4=CCC6C7(C)CCC(OC8OC(C(=O)O)C(O)C(O)C8OC8OC(CO)C(O)C(OC9OC(C)C(O)C(O)C9O)C8O)C(C)(CO)C7CCC6(C)C4(C)CC5)OC(CO)C(O)C3O)C(O)C2O)C(O)C(O)C1O (configuration not stated)	–	–	inactive: 89.1% [at 9.25 µM]	inactive: 97% [at 9.25 µM]
COC(=O)c1ccnc(-c2cc(C(=O)Nc3ccc(C4(N)CC4)cc3)ccn2)c1	inactive	inactive	–	–
CC1(C)CC[C@@]2(C(=O)O[C@@H]3O[C@H](CO)[C@@H](O)[C@H](O)[C@H]3O)C(C1)C1=CCC3[C@@]4(C)CC[C@@H](O[C@@H]5O[C@H](C(=O)O)[C@@H](O[C@@H]6OC[C@@H](O)[C@H](O)[C@H]6O)[C@H](O[C@@H]6OC[C@](O)(CO)[C@H]6O)[C@H]5O)C(C)(C)C4CC[C@@]3(C)[C@]1(C)C[C@H]2O (some centres not stated)	–	–	inactive: 11.6% [at 9.25 µM]	inactive: 12% [at 9.25 µM]
